Reference: PubChem BioAssay AID360 (National Center for Advancing Translational Sciences (NCATS), 2006)
Among all 48,000 compounds or so, about 550 (1.1%) were called active. Another 4% or so got no clear call; they are omitted. Rule as the data show it: active = potency below about 15 µM; inconclusive = mostly about 16 µM to 33 µM; inactive = weaker than that. The list shows a part of the results.

These compounds were tested against Lysosomal acid glucosylceramidase (Homo sapiens) (UniProt P04062) (assay: Glucocerebrosidase). Details: purified enzyme, resorufin glucoside fluorescence (screen aimed at inhibitors), 20 min; series mostly up to 77 µM.
UniProt P04062, sequence (P04062 whole entry, looked up): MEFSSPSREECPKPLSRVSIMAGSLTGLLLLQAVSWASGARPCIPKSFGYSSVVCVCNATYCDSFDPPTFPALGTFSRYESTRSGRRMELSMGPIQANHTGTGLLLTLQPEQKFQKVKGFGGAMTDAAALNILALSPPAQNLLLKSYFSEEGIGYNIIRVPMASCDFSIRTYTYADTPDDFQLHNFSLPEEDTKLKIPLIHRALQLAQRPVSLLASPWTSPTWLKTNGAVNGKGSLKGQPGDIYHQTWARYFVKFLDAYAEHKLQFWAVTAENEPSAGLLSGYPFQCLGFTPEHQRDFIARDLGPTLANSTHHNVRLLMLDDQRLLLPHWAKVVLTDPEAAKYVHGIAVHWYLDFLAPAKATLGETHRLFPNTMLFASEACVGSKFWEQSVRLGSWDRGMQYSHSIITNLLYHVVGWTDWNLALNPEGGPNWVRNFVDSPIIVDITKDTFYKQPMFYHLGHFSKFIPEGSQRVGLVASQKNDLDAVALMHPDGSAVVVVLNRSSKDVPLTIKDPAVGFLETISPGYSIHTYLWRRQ
Outline: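 Normal human glucocerebrosidase (0.2 nM final) was assayed with resorufin β-D-glucopyranoside (30 uM final) in 50mM citric acid/KH2PO4, 10mM sodium taurocholate, 0.01% tween-20, pH 5.9. Compounds were titrated; fluorescence (Ex 548, Em 600) read after 20 min at RT.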
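Also: the screen sought inhibitors.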
Potency is read from the fitted curve at half-maximal effect.

Potency, active:
CCn1c(-c2c[nH]c3ccccc23)n[nH]c1=S 10.8 µM
O=C(CN1CCCC1)Nc1ccc(NC(=O)Nc2ccccc2Cl)cc1 12.7 µM

Potency, inactive:
O=C(CSc1nc(C2CC2)nc2sc3c(c12)CCCC3)NCc1ccco1 > 76.9 µM
CCC(c1nnnn1Cc1cccs1)N1CCN(C2CCCC2)CC1 (configuration not stated) > 76.9 µM
CC1(C)CC(=O)C(C(C2=C(O)CC(C)(C)CC2=O)c2cccnc2)C(=O)C1 (configuration not stated) > 76.9 µM
Cc1ccc(Cn2c(NCCc3ccccc3)nc3c2c(=O)n(C)c(=O)n3C)cc1 > 76.9 µM
O=C(Nc1cccnc1)C1CC(c2ccc(Cl)c(Cl)c2)=NO1 (configuration not stated) > 76.9 µM
COC(=O)c1cc(=O)nc2sc(-c3ccc(F)cc3)nn12 > 76.9 µM
O=C(NC1CCS(=O)(=O)C1)c1cn(-c2ccccc2)nc1-c1ccccc1 (configuration not stated) > 76.9 µM
COc1ccccc1C(=O)Nc1c2c(nn1-c1cccc(C)c1C)CS(=O)C2 (configuration not stated) > 76.9 µM
O=C(COC(=O)c1ccccc1NC(=O)c1ccco1)NCc1ccc2c(c1)OCO2 > 76.9 µM
CCC(OC(=O)c1ccco1)C(=O)NCc1ccco1 (configuration not stated) > 76.9 µM
COCCN1Cc2cccc(C(=O)Nc3cccc(OC)c3)c2C1=O > 76.9 µM
Cc1ccc2cc(C(c3nnnn3Cc3ccccc3)N3CCN(c4ccccc4)CC3)c(=O)[nH]c2c1 (configuration not stated) > 76.9 µM
O=C(O)CN1C(=O)CSc2ccccc21 > 76.9 µM
CC(=O)C1C(c2ccc(F)cc2)NC(=O)NC1(O)C(F)(F)F (configuration not stated) > 76.9 µM
CCOc1ccc(-c2nnc3ccc(SC)nn23)cc1 > 76.9 µM
COc1ccc(C)cc1NC(=O)Cn1cnc2sc(C)c(S(=O)(=O)N3CCOCC3)c2c1=O > 76.9 µM
Cn1c(NCc2ccco2)nc2ccccc21 > 76.9 µM
Cc1ccc(S(=O)(=O)N2CCN(c3nc(C)nc4sc(C)c(C)c34)CC2)cc1 > 76.9 µM
N#C/C(=C(/O)COC(=O)CCc1ccc(S(=O)(=O)N2CCOCC2)cc1)c1nc2ccccc2[nH]1
Cc1ccc2cc(CN(CC3CCCO3)C(=O)C(C)C)c(=O)[nH]c2c1 (configuration not stated) > 76.9 µM
CCCCCCn1c(-c2ccco2)nc2oc3cc(OC)ccc3c(=O)c2c1=O > 76.9 µM
Cn1nc(OCC(N)=O)ccc1=O > 76.9 µM
CCCCc1c(O)nc2n(c1=O)CCS2 > 76.9 µM
Cc1onc(-c2ccccc2Cl)c1C(=O)N1CCN(c2ccccc2)CC1 > 76.9 µM
Cc1nc(-c2cccc(-c3noc(C)n3)c2)no1 > 76.9 µM
O=C(NCC1CC1)C1CCCN(S(=O)(=O)c2ccc(-n3cnnn3)cc2)C1 (configuration not stated) > 76.9 µM
O=C(COC(=O)c1ccccn1)Nc1cc(Cl)ccc1Cl > 76.9 µM
COc1ccc(Nc2nc(C)cc(C)c2C(N)=O)c(OC)c1 > 76.9 µM
Cc1ccc(-c2noc(CCC(=O)NCCc3ccccc3Cl)n2)cc1 > 76.9 µM
COc1ccc(CCn2c(C)cc3c(c2=O)C(c2ccncc2)C(C#N)=C(N)O3)cc1OC (configuration not stated) > 76.9 µM
O=C(NC1(C(F)(F)F)NC(=O)N(Cc2ccco2)C1=O)c1cccnc1 (configuration not stated) > 76.9 µM
O=S(=O)(c1ccc2c(c1)OCCO2)N1CCC(O)(c2ccc(Cl)cc2)CC1 > 76.9 µM
CCOC(=O)N1CCC(NC(=O)c2cnn3cccnc23)CC1 > 76.9 µM
COc1ccc(C2C(C(=O)c3ccc(C)o3)=C(O)C(=O)N2c2cc(C)on2)cc1OC (configuration not stated) > 76.9 µM
CCn1c(SCc2nnc(-c3ccccc3)o2)nnc1-c1ccc(S(=O)(=O)N2CCCC2)cc1 > 76.9 µM
Cc1nn(C)c(C)c1Sc1ccc(Br)cc1 > 76.9 µM
NC(=O)CCn1nc(-c2ccccc2)c2ccccc2c1=O > 76.9 µM
Cc1ccc(-c2nnc3ccc(SCC(=O)Nc4cc(C)on4)nn23)cc1 > 76.9 µM
O=C(CC1OC(=O)c2ccccc21)c1ccco1 (configuration not stated) > 76.9 µM
O=C(O)CCc1ccc(-c2ccccc2)n1Cc1ccco1 > 76.9 µM
Cc1c(NC(=O)CN2C(=O)C3C4C=CC(C4)C3C2=O)c(=O)n(-c2ccccc2)n1C (configuration not stated) > 76.9 µM
COc1cccc(NC(=O)N2CCC(N3CCCCC3)CC2)c1 > 76.9 µM
COc1cc(NC(=O)c2ccccc2Cl)c(OC)cc1NC(=O)CN1CCOCC1 > 76.9 µM
COCc1c(C(=O)OCc2nc(N)nc(Nc3ccccc3C)n2)oc2ccccc12 > 76.9 µM
COC(=O)c1[nH]c2ccc(Cl)cc2c1NC(=O)CN1CCC(C(N)=O)CC1 > 76.9 µM
O=C(CN1C(=O)CCS(=O)(=O)c2ccccc21)NCc1ccc2c(c1)OCO2 > 76.9 µM
COc1ccc(-n2nnnc2SCC#CCO)cc1 > 76.9 µM
O=C(CC12CC3CC(CC(C3)C1)C2)NCC(=O)N1CCCC1 > 76.9 µM
Cc1ccc(C)c(NC(=O)CN(C)S(=O)(=O)c2ccc(F)cc2)c1 > 76.9 µM
O=C(CN1C(=O)C2C3C=CC(C3)C2C1=O)N1CCc2ccccc2C1 (configuration not stated) > 76.9 µM
CC1(C)Cc2c(c(-c3ccco3)nc3n[nH]c(N)c23)CO1 > 76.9 µM
Cc1ccccc1-n1c(SC/C(O)=C(\C#N)c2nc3ccccc3[nH]2)nnc1-c1ccncc1 > 76.9 µM
CCN(Cc1cc2cc(OC)ccc2[nH]c1=O)C(=O)c1ccncc1 > 76.9 µM
Cc1ccc(CN2C(=O)CCC2C(=O)NCCN2CCOCC2)cc1 (configuration not stated) > 76.9 µM
COC(=O)c1ccccc1NC(=O)Cn1nc(C(F)(F)F)c2c1CCC2 > 76.9 µM
CN(C)/C=N/c1sc2c(c1C#N)CCC2 > 76.9 µM
CC1CC(C)CN(C(=O)Cn2c(=O)n(CCCCC(=O)NCc3ccco3)c(=O)c3ccccc32)C1 (configuration not stated) > 76.9 µM
CCOC(=O)c1c(N)sn(-c2ccccc2C)c1=S > 76.9 µM
CC(C)=C1C2C=CC1C(C(=O)Nc1cc(C)ccc1C)C2C(=O)O (configuration not stated) > 76.9 µM
COc1cc(C2Nc3cc(Cl)c(S(N)(=O)=O)cc3S(=O)(=O)N2)cc(OC)c1OC (configuration not stated) > 76.9 µM
CC(C)(C)NC(=O)NC(=O)COC(=O)CNC(=O)c1cccc(F)c1 > 76.9 µM
O=C(CSc1nnc(-c2ccc(F)cc2)o1)N1CCN(C(=O)c2ccco2)CC1 > 76.9 µM
O=C(O)CCC(NS(=O)(=O)c1ccc(N2CCCC2=O)cc1)C(=O)O (configuration not stated) > 76.9 µM
Cc1ccc(NC(=O)CC(O)(C(F)(F)F)C(F)(F)F)c(Br)c1 > 76.9 µM
Cc1ccc(CNC(=O)c2cc3c(=O)n4cccc(C)c4nc3n(CC3CCCO3)c2=N)cc1 (configuration not stated) > 76.9 µM
O=C(Cc1cn2ccsc2n1)NCc1ccccc1 > 76.9 µM
COc1ccc(CN(CC(=O)NC2CCCC2)C(=O)c2onc(C(N)=O)c2N)cc1 > 76.9 µM
CCOC(=O)c1oc2cc(OCC(N)=O)ccc2c(=O)c1-c1ccc(OC)c(OC)c1 > 76.9 µM
CC(C)(C)NC(=O)C(c1ccco1)N(C(=O)Cn1nnc(-c2ccc(F)cc2)n1)c1cccc(F)c1 (configuration not stated) > 76.9 µM
COC(=O)Nc1nnc(Cc2ccccc2)s1 > 76.9 µM
CCC(C(=O)NC1CCCC1)N(C(=O)Cn1nnc(-c2ccc(C)o2)n1)c1cnc2ccccc2c1 (configuration not stated) > 76.9 µM
CCCOc1cc(C)c(S(=O)(=O)n2ccc(C)n2)cc1C > 76.9 µM
CSc1nnc(-c2ccncc2)n1CCCN1CCCC1=O > 76.9 µM
COc1ccccc1Cn1c(=O)c2ccccc2n2c(Sc3ncnc4sccc34)nnc12 > 76.9 µM
CC(C)CCn1c(SCC(=O)OCn2nnc3ccccc3c2=O)nc2ccccc2c1=O > 76.9 µM
COc1cccc(C(C(=O)NC(C)(C)C)N(C(=O)CCC(=O)Nc2cc(C)on2)C(C)C)c1OC (configuration not stated) > 76.9 µM
O=C1CSC(=O)N1CCOCCN1C(=O)CSC1=O > 76.9 µM
O=C(COc1ccc(S(=O)(=O)N2CCCC2)cc1Cl)N1CCN(c2ccccc2)CC1 > 76.9 µM
CC(C)OCCCNC(=O)C1CCN(S(=O)(=O)N2CCCCC2)CC1 > 76.9 µM
COc1ccc(C2c3c(-c4cc(Cl)c(C)cc4O)n[nH]c3C(=O)N2Cc2cccnc2)cc1OC (configuration not stated) > 76.9 µM
CCN(CC)c1nc2nonc2nc1N(CC)CC > 76.9 µM
O=c1[nH]c(C(F)(F)F)nc2c1nnn2Cc1ccccc1F > 76.9 µM
CCN(CC)CCCNc1cc2n(c(=O)n1)CCc1cc(OC)c(OC)cc1-2 > 76.9 µM
O=C(NC1CCCCC1)c1sc(=S)n2c1[nH]c(=O)c1ccccc12 > 76.9 µM
COc1cc(C(=O)Nc2ccc(-n3cnnn3)c(C)c2)cc(OC)c1OC > 76.9 µM
